The values below come from US20250270339A1 (Alector, published 2025).

Sequences and labels used below:
T1: Cyno TfR ECD Avi-His (cynomolgus macaque, UniProt Q5RDH6 89-760 (Pongo abelii entry), biotin on the Avi tag (BirA) where captured on streptavidin)
T1 construct: also called Cyno TfR Avi-His; cyno TfR Avi-His
T1 chain: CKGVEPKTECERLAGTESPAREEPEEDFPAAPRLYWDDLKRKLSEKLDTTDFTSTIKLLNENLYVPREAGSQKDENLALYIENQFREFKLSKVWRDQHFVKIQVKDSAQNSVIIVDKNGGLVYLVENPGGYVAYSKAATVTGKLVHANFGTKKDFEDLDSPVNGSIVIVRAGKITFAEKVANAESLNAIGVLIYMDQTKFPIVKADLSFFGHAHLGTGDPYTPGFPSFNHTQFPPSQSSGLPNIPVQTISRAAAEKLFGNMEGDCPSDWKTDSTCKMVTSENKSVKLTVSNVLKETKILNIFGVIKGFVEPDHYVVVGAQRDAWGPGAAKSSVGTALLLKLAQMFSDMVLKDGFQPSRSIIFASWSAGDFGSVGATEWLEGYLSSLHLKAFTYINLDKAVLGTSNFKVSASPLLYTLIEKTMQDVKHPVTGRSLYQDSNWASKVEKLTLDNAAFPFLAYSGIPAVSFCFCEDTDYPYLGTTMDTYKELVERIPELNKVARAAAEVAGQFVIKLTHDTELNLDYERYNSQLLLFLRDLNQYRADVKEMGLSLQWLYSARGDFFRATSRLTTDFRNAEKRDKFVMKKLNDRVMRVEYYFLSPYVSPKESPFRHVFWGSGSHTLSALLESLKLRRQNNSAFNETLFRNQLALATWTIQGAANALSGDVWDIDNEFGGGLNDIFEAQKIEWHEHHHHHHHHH

B1: TfR9.1B.39.36 2+1 anti-TfR bispecific antibody (bispecific antibody, human IgG1, kappa)
heavy 1: EVRLLESGGGLVQPGGSLRLSCAASGFTFSNYAMGWVRQAPGKGLEWVSAISGSGGSTYYADSVKGRFTTSRDDSKNALYLQMNSLRAEDTAVYYCARGGPGWYAADVWGQGTTVTVSSASTKGPSVFPLAPSSKSTSGGTAALGCLVKDYFPEPVTVSWNSGALTSGVHTFPAVLQSSGLYSLSSVVTVPSSSLGTQTYICNVNHKPSNTKVDKKV[here human IgG1 Fc with changes without letters]GGGGSGGGGSGGGGSQVQLVQSGAEVKKPGASVKVSCKASGYTFTEYAMHWVRQAPGQGLEWMGGIDPNTGGTSYNQKFKGRVTMTVDTSTSTAYMELSSLRSEDTAVYYCASQGWLLRGGDYWGQGTLVTVSSGGSEGKSSGSGSESKSTGGSDVVMTQSPLSLPVTLGQPASISCKASQSLLDEEGKTYLNWLQQRPGQSPRRLIYLVSKLDSGVPDRFSGSGSGTDFTLKISRVEAEDVGVYYCWQGTHFPQTFGGGTKVEIK
heavy 2: EVRLLESGGGLVQPGGSLRLSCAASGFTFSNYAMGWVRQAPGKGLEWVSAISGSGGSTYYADSVKGRFTTSRDDSKNALYLQMNSLRAEDTAVYYCARGGPGWYAADVWGQGTTVTVSS[here human IgG1 constant region with changes without letters]
light: DIQMTQSPSSLSASVGDRVTITCRASQSISSYLNWYQQKPGKAPKLLIYAASSLQSGVPSRFSGSGSGTDFTLTISSLQPEDFATYYCQQADLPAFAFGGGTKVEIKRTVAAPSVFIFPPSDEQLKSGTASVVCLLNNFYPREAKVQWKVDNALQSGNSQESVTEQDSKDSTYSLSSTLTLSKADYEKHKVYACEVTHQGLSSPVTKSFNRGEC
notes: 2+1; also called Tf9.1B.39.36
B2: TfR9.1B.39.38 2+1 anti-TfR bispecific antibody (bispecific antibody, human IgG1, kappa)
heavy 1: EVRLLESGGGLVQPGGSLRLSCAASGFTFSNYAMGWVRQAPGKGLEWVSAISGSGGSTYYADSVKGRFTTSRDDSKNALYLQMNSLRAEDTAVYYCARGGPGWYAADVWGQGTTVTVSSASTKGPSVFPLAPSSKSTSGGTAALGCLVKDYFPEPVTVSWNSGALTSGVHTFPAVLQSSGLYSLSSVVTVPSSSLGTQTYICNVNHKPSNTKVDKKV[here human IgG1 Fc with changes without letters]GGGGSGGGGSGGGGSQVQLVQSGAEVKKPGASVKVSCKASGYTFTEYAMHWVRQAPGQGLEWMGGIAPNTGGTSYNQKFKGRVTMTVDTSTSTAYMELSSLRSEDTAVYYCASQGWLLRGGDYWGQGTLVTVSSGGSEGKSSGSGSESKSTGGSDVVMTQSPLSLPVTLGQPASISCKASQSLLDEGGKTYLNWLQQRPGQSPRRLIYLVSKLDSGVPDRFSGSGSGTDFTLKISRVEAEDVGVYYCWQGTHFPQTFGGGTKVEIK
heavy 2: EVRLLESGGGLVQPGGSLRLSCAASGFTFSNYAMGWVRQAPGKGLEWVSAISGSGGSTYYADSVKGRFTTSRDDSKNALYLQMNSLRAEDTAVYYCARGGPGWYAADVWGQGTTVTVSS[here human IgG1 constant region with changes without letters]
light: B1 light
notes: 2+1
B3: TfR9.1B.39.37 2+1 anti-TfR bispecific antibody (bispecific antibody, human IgG1, kappa)
heavy 1: EVRLLESGGGLVQPGGSLRLSCAASGFTFSNYAMGWVRQAPGKGLEWVSAISGSGGSTYYADSVKGRFTTSRDDSKNALYLQMNSLRAEDTAVYYCARGGPGWYAADVWGQGTTVTVSSASTKGPSVFPLAPSSKSTSGGTAALGCLVKDYFPEPVTVSWNSGALTSGVHTFPAVLQSSGLYSLSSVVTVPSSSLGTQTYICNVNHKPSNTKVDKKV[here human IgG1 Fc with changes without letters]GGGGSGGGGSGGGGSQVQLVQSGAEVKKPGASVKVSCKASGYTFTEYAMHWVRQAPGQGLEWMGGIAPGTGGTSYNQKFKGRVTMTVDTSTSTAYMELSSLRSEDTAVYYCASQGWLLRGGDYWGQGTLVTVSSGGSEGKSSGSGSESKSTGGSDVVMTQSPLSLPVTLGQPASISCKASQSLLDEEGKTYLNWLQQRPGQSPRRLIYLVSKLDSGVPDRFSGSGSGTDFTLKISRVEAEDVGVYYCWQGTHFPQTFGGGTKVEIK
heavy 2: EVRLLESGGGLVQPGGSLRLSCAASGFTFSNYAMGWVRQAPGKGLEWVSAISGSGGSTYYADSVKGRFTTSRDDSKNALYLQMNSLRAEDTAVYYCARGGPGWYAADVWGQGTTVTVSS[here human IgG1 constant region with changes without letters]
light: B1 light
notes: 2+1
B4: TfR15.WH8.1 2+1 anti-TfR bispecific antibody (bispecific antibody, human IgG1, kappa)
heavy 1: EVRLLESGGGLVQPGGSLRLSCAASGFTFSNYAMGWVRQAPGKGLEWVSAISGSGGSTYYADSVKGRFTTSRDDSKNALYLQMNSLRAEDTAVYYCARGGPGWYAADVWGQGTTVTVSSASTKGPSVFPLAPSSKSTSGGTAALGCLVKDYFPEPVTVSWNSGALTSGVHTFPAVLQSSGLYSLSSVVTVPSSSLGTQTYICNVNHKPSNTKVDKKV[here human IgG1 Fc with changes without letters]GGGGSGGGGSGGGGSQVQLVQSGAEVKKPGASVKVSCKASGYTFTSYYMHWVRQAPGQGLEWMGNIYPGSGSSNYAQKFQGRVTMTRDTSTSTVYMELSSLRSEDTAVYYCTRSSYYGNFDTMDNWGQGTTVTVSSGGSEGKSSGSGSESKSTGGSEIVLTQSPATLSLSPGERATLSCRASSSIRYMNWYQQKPGQAPRRLIYDTSNRATGIPARFSGSGSGTDFTLTISSLEPEDFAVYYCHQRSSYPWTFGGGTKVEIK
heavy 2: EVRLLESGGGLVQPGGSLRLSCAASGFTFSNYAMGWVRQAPGKGLEWVSAISGSGGSTYYADSVKGRFTTSRDDSKNALYLQMNSLRAEDTAVYYCARGGPGWYAADVWGQGTTVTVSS[here human IgG1 constant region with changes without letters]
light: B1 light
notes: 2+1
B5: TfR9.1B.39.40 2+1 anti-TfR bispecific antibody (bispecific antibody, human IgG1, kappa)
heavy 1: EVRLLESGGGLVQPGGSLRLSCAASGFTFSNYAMGWVRQAPGKGLEWVSAISGSGGSTYYADSVKGRFTTSRDDSKNALYLQMNSLRAEDTAVYYCARGGPGWYAADVWGQGTTVTVSSASTKGPSVFPLAPSSKSTSGGTAALGCLVKDYFPEPVTVSWNSGALTSGVHTFPAVLQSSGLYSLSSVVTVPSSSLGTQTYICNVNHKPSNTKVDKKV[here human IgG1 Fc with changes without letters]GGGGSGGGGSGGGGSQVQLVQSGAEVKKPGASVKVSCKASGYTFTEYAMHWVRQAPGQGLEWMGGINPKEGGTSYNQKFKGRVTMTVDTSTSTAYMELSSLRSEDTAVYYCASQGWLLRGGDYWGQGTLVTVSSGGSEGKSSGSGSESKSTGGSDVVMTQSPLSLPVTLGQPASISCKASQSLLDEDQKTYLNWLQQRPGQSPRRLIYLVSKLDSGVPDRFSGSGSGTDFTLKISRVEAEDVGVYYCWQGTHFPQTFGGGTKVEIK
heavy 2: EVRLLESGGGLVQPGGSLRLSCAASGFTFSNYAMGWVRQAPGKGLEWVSAISGSGGSTYYADSVKGRFTTSRDDSKNALYLQMNSLRAEDTAVYYCARGGPGWYAADVWGQGTTVTVSS[here human IgG1 constant region with changes without letters]
light: B1 light
notes: 2+1
B6: TfR15.WH7.1 2+1 anti-TfR bispecific antibody (bispecific antibody, human IgG1, kappa)
heavy 1: EVRLLESGGGLVQPGGSLRLSCAASGFTFSNYAMGWVRQAPGKGLEWVSAISGSGGSTYYADSVKGRFTTSRDDSKNALYLQMNSLRAEDTAVYYCARGGPGWYAADVWGQGTTVTVSSASTKGPSVFPLAPSSKSTSGGTAALGCLVKDYFPEPVTVSWNSGALTSGVHTFPAVLQSSGLYSLSSVVTVPSSSLGTQTYICNVNHKPSNTKVDKKV[here human IgG1 Fc with changes without letters]GGGGSGGGGSGGGGSQVQLVQSGAEVKKPGASVKVSCKASGYTFTSYYMHWVRQAPGQGLEWMGNIYPGSGSSNYAQKFQGRVTMTRDTSTSTVYMELSSLRSEDTAVYYCTRSSYYGNFDTMDNWGQGTTVTVSSGGSEGKSSGSGSESKSTGGSDIQLTQSPSFLSASVGDRVTITCRASSSIRYMNWYQQKPGKAPKRLIYDTSTLQSGVPSRFSGSGSGTEFTLTISSLQPEDFATYYCHQRSSYPWTFGGGTKVEIK
heavy 2: EVRLLESGGGLVQPGGSLRLSCAASGFTFSNYAMGWVRQAPGKGLEWVSAISGSGGSTYYADSVKGRFTTSRDDSKNALYLQMNSLRAEDTAVYYCARGGPGWYAADVWGQGTTVTVSS[here human IgG1 constant region with changes without letters]
light: B1 light
notes: 2+1
B7: TfR15.WH12.1 2+1 anti-TfR bispecific antibody (bispecific antibody, human IgG1, kappa)
heavy 1: EVRLLESGGGLVQPGGSLRLSCAASGFTFSNYAMGWVRQAPGKGLEWVSAISGSGGSTYYADSVKGRFTTSRDDSKNALYLQMNSLRAEDTAVYYCARGGPGWYAADVWGQGTTVTVSSASTKGPSVFPLAPSSKSTSGGTAALGCLVKDYFPEPVTVSWNSGALTSGVHTFPAVLQSSGLYSLSSVVTVPSSSLGTQTYICNVNHKPSNTKVDKKV[here human IgG1 Fc with changes without letters]GGGGSGGGGSGGGGSQVQLVQSGAEVKKPGASVKVSCKASGYTFTSYYMHWVRQAPGQGLEWMGNIYPGSGSSNYAQKFQGRVTLTVDTSTSTVYMELSSLRSEDTAVYYCTRSSYYGNFDTMDNWGQGTTVTVSSGGSEGKSSGSGSESKSTGGSDIQMTQSPSSLSASVGDRVTITCRASSSIRYLNWYQQKPGKAPKRLIYDTSSLQSGVPSRFSGSGSGTDFTLTISSLQPEDFATYYCHQRSSYPWTFGGGTKVEIK
heavy 2: EVRLLESGGGLVQPGGSLRLSCAASGFTFSNYAMGWVRQAPGKGLEWVSAISGSGGSTYYADSVKGRFTTSRDDSKNALYLQMNSLRAEDTAVYYCARGGPGWYAADVWGQGTTVTVSS[here human IgG1 constant region with changes without letters]
light: B1 light
notes: 2+1
B8: TfR9.1B.39.39 2+1 anti-TfR bispecific antibody (bispecific antibody, human IgG1, kappa)
heavy 1: EVRLLESGGGLVQPGGSLRLSCAASGFTFSNYAMGWVRQAPGKGLEWVSAISGSGGSTYYADSVKGRFTTSRDDSKNALYLQMNSLRAEDTAVYYCARGGPGWYAADVWGQGTTVTVSSASTKGPSVFPLAPSSKSTSGGTAALGCLVKDYFPEPVTVSWNSGALTSGVHTFPAVLQSSGLYSLSSVVTVPSSSLGTQTYICNVNHKPSNTKVDKKV[here human IgG1 Fc with changes without letters]GGGGSGGGGSGGGGSQVQLVQSGAEVKKPGASVKVSCKASGYTFTEYAMHWVRQAPGQGLEWMGGINPSFGGTSYNQKFKGRVTMTVDTSTSTAYMELSSLRSEDTAVYYCASQGWLLRGGDYWGQGTLVTVSSGGSEGKSSGSGSESKSTGGSDVVMTQSPLSLPVTLGQPASISCKASQSLLDEEGKTYLNWLQQRPGQSPRRLIYLVSKLDSGVPDRFSGSGSGTDFTLKISRVEAEDVGVYYCWQGTHFPQTFGGGTKVEIK
heavy 2: EVRLLESGGGLVQPGGSLRLSCAASGFTFSNYAMGWVRQAPGKGLEWVSAISGSGGSTYYADSVKGRFTTSRDDSKNALYLQMNSLRAEDTAVYYCARGGPGWYAADVWGQGTTVTVSS[here human IgG1 constant region with changes without letters]
light: B1 light
notes: 2+1

In the experiment the target is T1, Cyno TfR ECD Avi-His. The experiment can be described thus: BLI (GatorBio), biotinylated TfR on probe.
What is called Kd is the equilibrium constant for the complex coming apart. Take B1: binding was put at a Kd of 2300 nM.

In the case of B2, the Kd worked out at 1500 nM.

With B3, the Kd worked out at 1300 nM.

In turn, B4 registered a Kd of 37 nM.

B5 gave an equilibrium dissociation constant (Kd) of 570 nM.

Consider B6, for which the Kd was determined as 100 nM.

For B7, the binding result is listed as “binds”.

B8: the binding result is “binds”.
